Data as given in PubChem BioAssay AID1645882 (National Center for Advancing Translational Sciences (NCATS), 2021).
Where a name gives a salt, the structure may show the parent alone. Among all 16,000 compounds or so, about 120 (0.75%) were called active. Not shown: some 4% with an inconclusive outcome. Calls come from the whole dose curve; as a rule, active = well fitted inhibition curve with a large enough effect; inconclusive = small, poorly fitted or top-dose-only effect; inactive = no such curve, though single readings can be large or run the other way. The list shows a part of the results. Where a SMILES comes first, the peptide text is derived from it. The star is where a group is joined. Tfa = O=C(C(F)(F)F)*

target: Rap guanine nucleotide exchange factor 3 (Homo sapiens) (UniProt O95398); experiment: Validation qHTS for antagonist of cAMP-regulated guanine nucleotide exchange factor 3 (EPAC1); details: EPAC1 Rap1B-BODIPY-GDP exchange, fluorescence; series mostly up to 150 µM; activity change, negative = inhibition: at the top concentration; note: nearly all actives have a fitted effect of over 75% in size
UniProt O95398, sequence (O95398 whole entry, looked up): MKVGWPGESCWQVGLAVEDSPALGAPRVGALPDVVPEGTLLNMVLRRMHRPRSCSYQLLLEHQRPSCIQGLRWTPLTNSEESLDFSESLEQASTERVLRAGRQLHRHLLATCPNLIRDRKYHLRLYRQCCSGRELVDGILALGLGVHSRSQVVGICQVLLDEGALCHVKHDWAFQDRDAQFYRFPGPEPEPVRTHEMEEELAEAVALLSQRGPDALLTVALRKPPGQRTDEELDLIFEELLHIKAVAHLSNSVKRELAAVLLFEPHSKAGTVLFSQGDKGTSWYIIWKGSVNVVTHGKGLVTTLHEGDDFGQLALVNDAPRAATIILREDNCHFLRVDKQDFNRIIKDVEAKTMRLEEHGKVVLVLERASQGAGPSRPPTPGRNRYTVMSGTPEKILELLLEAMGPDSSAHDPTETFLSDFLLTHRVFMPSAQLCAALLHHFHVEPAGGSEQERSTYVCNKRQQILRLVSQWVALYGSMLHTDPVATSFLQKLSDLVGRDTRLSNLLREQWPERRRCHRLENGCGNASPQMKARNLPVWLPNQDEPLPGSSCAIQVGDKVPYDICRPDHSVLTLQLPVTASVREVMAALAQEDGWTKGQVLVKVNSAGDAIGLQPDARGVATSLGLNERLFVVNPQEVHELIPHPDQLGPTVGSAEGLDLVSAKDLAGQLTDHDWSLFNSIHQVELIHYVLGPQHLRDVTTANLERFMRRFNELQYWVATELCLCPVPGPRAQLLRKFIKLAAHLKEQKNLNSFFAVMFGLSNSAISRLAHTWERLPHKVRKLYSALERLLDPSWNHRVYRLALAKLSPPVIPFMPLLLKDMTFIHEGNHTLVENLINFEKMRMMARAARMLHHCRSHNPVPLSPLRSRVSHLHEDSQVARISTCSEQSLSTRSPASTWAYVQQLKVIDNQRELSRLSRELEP
Summary of the method: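 EPAC1 (100 nM) mixed with 250 nM RAP1B-BODIPY-GDP and 50 uM GDP; compounds in concentration series, 5 min at room temperature. Fluorescence (ex 480/em 540 nm) read every 5 min for 30 min; normalized to ATA control and DMSO.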

Activity change, negative = inhibition, inactive:
C[N+](C)(C)CCOP(=O)([O-])OP(=O)(O)OCC1OC(n2ccc(N)nc2=O)C(O)C1O (stereo not given) 10.1%
COCCn1c(=O)c(CCc2ccccc2)nc2cnc(Nc3ccccc3)nc21 14.6%
CC(C)C(NC(=O)C(Cc1ccc(O)cc1)NC(=O)C(NC(=O)C(F)(F)F)C(C)C)C(=O)O (stereo not drawn) (Tfa-Val-Tyr-Val-OH; configuration not given here) 14.7%
Cc1cnc(-n2ncc(C(=O)NCCc3ccccn3)c2C)nc1-c1ccc(F)cc1 13.9%
CC(C)c1nc(CN(C)C(=O)N[C@H](C(=O)N[C@@H](Cc2ccccc2)C[C@H](O)[C@H](Cc2ccccc2)NC(=O)OCc2cncs2)C(C)C)cs1 0.389%
CCCOC(=O)c1c(-c2ccccc2)nc(CC)c(C(=O)SCC)c1CCC -3.56% [at 75.8 µM]
COc1ccccc1OCCNCC(O)COc1cccc2[nH]c3ccccc3c12 (stereo not given)
COc1ccccc1CNc1ncnc2ccc(-c3ccc4c(c3)OCO4)cc12 1.51%
Cc1cnc(SCc2ccccn2)nc1C1CCCN(C(=O)c2ccc(-c3ccccc3F)cc2)C1 (stereo not given) 1.45%
COc1cc(-c2coc3cc(OCc4ccccc4)c(OC)c(O)c3c2=O)cc(O)c1OC -22.3%
CCn1c(-c2ccccc2F)nc2cc(NC(C)=O)cc(C(=O)NCC3CCOCC3)c21 8.87%
COC(=O)N1CCC2(CCCN(c3ccccn3)C2)CC1 34%
CC1OC1P(=O)(O)O (stereo not given) -1.48% [at 75.8 µM]
COC(=O)/C(=C1/OC(=O)C(c2ccccc2)=C1O)c1ccccc1 6.34%
Cc1cnc(-n2ncc(C(=O)NCCN3CCOCC3)c2C(C)C)nc1-c1ccc(F)cc1 -1.73%
CC(=O)Oc1cccc(C(=O)O)c1OC(C)=O 9.07%
CCN(CC)C(=O)c1cc(S(=O)(=O)Cc2ccccc2)c(N2CCC(c3ccccc3)CC2)cc1N(CC)CCN(C)C -9.9%
COc1c(O)cc2c(c1O)[C@@H]1O[C@H](CO)[C@@H](O)[C@H](O)[C@H]1OC2=O 2.48% [at 75.8 µM]
CCC1OC(=O)C(C)[C@@H](O[C@H]2C[C@@](C)(OC)C(O)C(C)O2)C(C)[C@@H](O[C@@H]2OC(C)CC(N(C)C)C2O)[C@@](C)(O)CC(C)CN(C)C(C)C(O)[C@]1(C)O (stereo not given in full) 8.51%
CCCCC(F)(F)[C@@]1(O)CC[C@H]2[C@H](CC(=O)[C@@H]2CCCCCCC(=O)O)O1 29.9%
COc1ccc(CCCOC(Cn2ccnc2)c2ccc(OC)cc2)cc1 (stereo not given)
C=CCN(C(=O)OC(C)(C)C)S(=O)(=O)NCc1ccccc1 6.4%
C[N+]1(CC(=O)c2ccc(-c3ccccc3)cc2)CCOCC1 21.9%
COc1ccc(C(C)=O)c(O)c1 -1.33%
Cc1cccc(CNCCn2cc(C(=O)Nc3ccccc3)nn2)c1 -6.58%
CCc1ccc(C(=O)C[N+]2(C)CCOCC2)cc1 7.1%
Cc1cccc(Nc2ncccc2C(=O)O)c1C 14.4%
O=C1CCN(CCc2ccccc2)CCN1[C@H](CO)c1ccccc1 -13%
Oc1ccc(C(O)CNCCCCCCNCC(O)c2ccc(O)c(O)c2)cc1O (stereo not given) 3.21%
CCc1c(C(=O)NCCc2ccc(N3CCCCC3)cc2)[nH]c2ccc(Cl)cc12 -8.84% [at 75.8 µM]
Cc1cc(C(=O)Nc2ccccc2-c2nc(CNC(=O)c3ccccc3Cl)c(C)o2)c(C)o1 11.4%
CCCCN(CCCC)C(=S)[S-].CCCCN(CCCC)C(=S)[S-].[Zn+2] -4.97%
CCN(Cc1ccncc1)Cc1ccc2c(c1)CN(C(=O)c1ccccc1)CCO2 9.54%
Cc1cccc(CNC(=O)c2cnn(-c3nccc(-c4cccs4)n3)c2C(C)C)n1 19.1%
C#CCOc1ccc2c(C)cc(=O)oc2c1 22.1%
CN(C)c1ncc2nc(-c3cccs3)c(=O)n(C3CC3)c2n1 52.3%
COc1ccc2[nH]c(S(=O)Cc3ncc(C)c(OC)c3C)nc2n1 (stereo not given) 8.43%
CS(=O)(=O)Nc1cccc(-c2cncnc2NCc2ccccc2)c1 5.93%
CCC1=C[C@@H]2CN(C1)Cc1c([nH]c3ccccc13)[C@@](C(=O)OC)(c1cc3c(cc1OC)N(C)[C@@H]1[C@@](O)(C(=O)OC)[C@H](OC(C)=O)[C@]4(CC)C=CCN5CC[C@]31[C@@H]54)C2 4.66%
Cc1cc(O)cc(=O)o1 -3.13%
Cn1c(=O)c(CCc2ccccc2)nc2cnc(Oc3ccccc3)nc21 -6.5%
NC(N)=NCCN1CCCCCCC1
COCC(=O)N1CCC[C@@]2(CCN(Cc3nccs3)C2)C1 9.13%
Cc1cnc(-n2ncc(C(=O)N(C)C3CCOC3)c2-c2cccs2)nc1-c1ccc(F)cc1 (stereo not given) 7.41%
O=c1c(-c2ccc(Cl)cc2)nc2cnc(N3CCOCC3)nc2n1Cc1ccc(F)cc1 19.1%
CCN1CCCC1CNC(=O)c1cc(S(=O)(=O)CC)c(N)cc1OC (stereo not given)
Nc1nc(N)nc(-c2cc(Cl)ccc2Cl)n1 16.1%
CCOC(=O)[C@H](CCc1ccccc1)N[C@@H](C)C(=O)N1CC2(C[C@H]1C(=O)O)SCCS2 13.8%
S=P(N1CC1)(N1CC1)N1CC1
COC(=O)C1CCN(Cc2ccc3c(c2)CN(C(=O)c2ccc4nc(C)c(C)nc4c2)CCO3)CC1 7.92%
COCCN(C)C(=O)c1cnn(-c2nccc(-c3cc(C)sc3C)n2)c1C 6.02%
O=c1c(-c2cccc(F)c2)nc2cncnc2n1Cc1ccccc1 -2.44%
COc1cc(N)c(Cl)cc1C(=O)NC1CCN(Cc2ccccc2)CC1
COc1ccc(SC[C@H](Cc2ccccc2)N2CC[C@@H](O)CCC2=O)cc1 1.24%
COC(=O)N1CCC2(CCCN(C(=O)Nc3ccc(OC)cc3)C2)CC1 21.6%
COc1cccc(CNC(=O)c2c(OC)cc(=O)n3c2CCN(C(=O)C2=C(C)OCCO2)CC3)c1 12.6%
Cc1ccc(F)cc1CNC(=O)c1sc2ncnc(NCC3CCCO3)c2c1C (stereo not given) 8.5%
COc1ccc(Oc2ncc3nc(-c4ccc(F)cc4)c(=O)n(CCC#N)c3n2)cc1 -0.261%
C=CCSCC(N)C(=O)O (stereo not given) 20.8%
COc1cc(NCCCC(C)N)c2ncccc2c1 (stereo not given) 7.2%
C[C@@H]1c2ccccc2CN1CC1=NCCN1 7.18%
Cc1ccccc1N=C1Nc2ccc(Cl)cc2N[C@]12C[C@H]1CCCC(=O)N3CC[C@@H](C2)[C@@H]13 10.6%
COc1cc(C)c(CC/C(C)=C/C=C/C(C)=O)c(C)c1C -8.02%
COc1ccc(CNC(=O)c2cnn(-c3ncc4c(n3)-c3ccccc3CC4)c2C)cc1OC 6.94%
O=C(c1ccc(Cl)cc1)N1CCN(c2ccc([N+](=O)[O-])c3ncccc23)CC1 -7.07% [at 75.8 µM]
COC(=O)[C@@H]1N2C(=O)[C@@H](NC(=O)C(C)Oc3ccccc3)[C@H]2SC1(C)C (stereo not given in full) 7.24%
COCC1CCCN(Cc2ccc3c(c2)CN(C(=O)c2cccnc2OC)CCO3)C1 (stereo not given) 9.6%
COc1ccc2c(c1)CCc1cnc(-n3ncc(C(=O)NCCCc4ccncc4)c3C)nc1-2 -2.74%
CC(C)CN1CCC2(CC1)CCN(C(=O)c1cccc(F)c1)CC2 15.5%
O=S(=O)(O)CCCS(=O)(=O)O 9.94%
COC(=O)c1ccc(C(=O)NCC2Cc3cc(F)cc(-c4cncnc4)c3O2)cc1 (stereo not given) 3.99%
CCCCCCCCCCCC(=O)OC[C@@H](O)C1OC[C@H](O)[C@H]1O (stereo not given in full) -21.7%
CCOC(=O)c1ccc(OCCN2C[C@H](O)[C@@H](O)[C@H](O)[C@H]2CO)cc1 6.74%
Nc1cccc2c1CN(C1CCC(=O)NC1=O)C2=O (stereo not given) 19%
CCCCCCCCCCCCCCCC(C)C1=NCCN1 (stereo not given) 1.16%
O=C(Nc1cccc(F)c1)N1CC[C@@]2(CCCN(C(=O)c3csnn3)C2)C1 17.7%
CC(=O)Oc1c(C)c(C)c2c(c1C)CCC(C)(CCCC(C)CCCC(C)CCCC(C)C)O2 (stereo not given)
COc1ccc(C(=O)N2CCC3(CCN(Cc4ccc(C#N)cc4)CC3)CC2)cc1 19.9%
COCCn1c(=O)c(-c2cc(F)cc(F)c2)nc2cnc(N(C)C)nc21 11.4%
O=c1c(O)c(-c2ccccc2)oc2ccc3occc3c12 2.88%
CO[C@]1(NC(=O)CSC(F)F)C(=O)N2C(C(=O)O)=C(CSc3nnnn3CCO)CO[C@H]21 44.9%
O=C(C[n+]1cccc2cccc(O)c21)c1ccc(F)cc1 7.1%
Cc1nc2cnc(Oc3cccc(Cl)c3)nc2n(C[C@H]2CCCO2)c1=O 16.8%
CC(C)NC(=O)N1CC[C@@]2(CCCN(C(=O)Oc3ccccc3)C2)C1 -2.29%
COC(=O)[C@@H]1CCCN1C(=O)c1cc(NC(=O)c2ccccc2)cc2ncn(C3CCCC3)c12 3.96%
Cc1ncc2c(c1CNC(=O)c1ccsc1)CCN(C(=O)c1c(F)cccc1Cl)C2 8.26%
Cn1cccc1C(=O)N1CCC2(CCCN(C(c3ccccc3)c3ccccc3)C2)CC1 8.48%
CCNc1ncc2nc(-c3ccc(Cl)cc3)c(=O)n(C[C@H]3CCCO3)c2n1 17.9%
Cc1cnc(C)c(-c2cc(F)cc3c2OC(CNC(=O)Cc2c(C)noc2C)C3)n1 (stereo not given) 0.496%
COc1ccc(-c2coc3c(OC)c(OC)cc(O)c3c2=O)cc1 -16.4%
C=C1[C@@H](O)CN(Cc2ccc(OC)cc2)S1(=O)=O 13.5%
COCCn1c(=O)c(-c2cc(F)cc(F)c2)nc2cnc(Oc3ccccc3)nc21 -0.311%
CC(C)COC(=O)c1ccc(N)cc1 -0.856%
COc1ccc(C(=O)c2ccc(O)cc2)c(O)c1O -0.0129%
COc1cc(=O)n2c(c1C(=O)N(C)Cc1cscn1)CCN(Cc1c(C)[nH]c3ccccc13)CC2 18.3%
O=C1N(c2ccccc2)c2ccccc2C1(Cc1ccncc1)Cc1ccncc1
Cc1nc2cnc(N(C)C)nc2n(CCc2ccccc2)c1=O -7.54%
Cn1cc(/C=C/c2ccc3ccccc3n2)c2ccccc21 13.3%
CCCn1c(=O)c2[nH]c(-c3ccc(S(=O)(=O)O)cc3)nc2n(CCC)c1=O -4.74% [at 75.8 µM]
CC[C@H](NC(C)C)[C@H](O)c1ccc(O)c2[nH]c(=O)ccc12
